Test results as given in patent US5760092A, “Allocolchinones and uses thereof” (Brandeis University, priority 1996, dated 1998).
“And” between values parts separate entries of the source, which are not always exact repeats. Equal entries are not always repeated. Where two headings read alike, the source gives them in different places.

Key:
[1] = system: NCI-H522 non-small cell lung cancer cells
[2] = system: HCC-2998 colon cancer cells
[3] = system: IGR-OV1 ovarian cancer cells
TK-10 renal cancer cells [4] = system: TK-10 renal cancer cells
[5] = system: MDA-MB-231/ATCC breast cancer cells
[6] = system: HCC-2998 colon cancer cells; test: cells; conditions: Homo sapiens, HCC 2998
TK-10 renal cancer cells [7] = test: cells; conditions: Homo sapiens, TK-10
[8] = system: MDA-MB-435 breast cancer cells; test: cells; conditions: Homo sapiens, MDA-MB-435, read-out: LC50
[9] = system: MDA-N breast cancer cells; test: cells; conditions: Homo sapiens, read-out: LC50
[10] = system: T-47D breast cancer cells; test: cells; conditions: Homo sapiens, T47D

COc1cc2c(c(OC)c1OC)-c1ccc(C(C)=O)cc1C(NC(C)=O)CC2 (centres unmarked)
TGI [1]: 1360 nM
GI50 [2]: 37.3 nM
TGI (SK-MEL-5 melanoma cells): > 1000 nM and 886 nM
TGI [3]: > 1000 nM
TGI (TK-10 renal cancer cells [4]): > 1000 nM
TGI [5]: > 100000 nM
GI50 [6]: 45.3 nM
GI50 (TK-10 renal cancer cells [7]): > 1000 nM
CC50 [8]: > 1000 nM
CC50 [9]: > 100000 nM
GI50 [10]: > 1000 nM
